# Reference: PubChem BioAssay AID504332 (National Center for Advancing Translational Sciences (NCATS), 2011)
# “And” between values parts separate entries of the source, which are not always exact repeats. Equal values may be shown once. Screen size: about 350,000 compounds; about 31,000 (8.9%) were called active. Inconclusive means that the source gave no clear call. Such entries were picked first, then a sample of the others. Calls come from the whole dose curve; as a rule, active = well fitted inhibition curve with a large enough effect; inconclusive = small, poorly fitted or top-dose-only effect; inactive = no such curve, though single readings can be large or run the other way. A potency beside an inconclusive call is a rough fit, not a confirmed value.
# Molecular target: Histone-lysine N-methyltransferase EHMT2 (Homo sapiens) (UniProt Q96KQ7)
# Assay: qHTS Assay for Inhibitors of Histone Lysine Methyltransferase G9a; note: nearly all actives have a fitted effect of over 75% in size
# Details: G9a H3K9 monomethylation, AlphaScreen, 2 h; activity, negative = inhibition: at 59 µM (top of the series) unless noted
# Procedure, shortened: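 Quantitative HTS format: methyltransferase activity on a biotin-tagged H3K9 peptide is measured by AlphaScreen, using a rabbit anti-monomethyl-H3K9 antibody with streptavidin donor and anti-IgG acceptor beads. Final levels are 20 nM enzyme, 500 nM peptide, 20 uM SAM; 2 h RT.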
# % is set by controls: 0 for no effect and ±100 for the full control effect; potency is the fitted concentration of half-maximal effect; tags give direction and shape of the fitted curve.
# UniProt Q96KQ7, sequence (Q96KQ7 whole entry, looked up): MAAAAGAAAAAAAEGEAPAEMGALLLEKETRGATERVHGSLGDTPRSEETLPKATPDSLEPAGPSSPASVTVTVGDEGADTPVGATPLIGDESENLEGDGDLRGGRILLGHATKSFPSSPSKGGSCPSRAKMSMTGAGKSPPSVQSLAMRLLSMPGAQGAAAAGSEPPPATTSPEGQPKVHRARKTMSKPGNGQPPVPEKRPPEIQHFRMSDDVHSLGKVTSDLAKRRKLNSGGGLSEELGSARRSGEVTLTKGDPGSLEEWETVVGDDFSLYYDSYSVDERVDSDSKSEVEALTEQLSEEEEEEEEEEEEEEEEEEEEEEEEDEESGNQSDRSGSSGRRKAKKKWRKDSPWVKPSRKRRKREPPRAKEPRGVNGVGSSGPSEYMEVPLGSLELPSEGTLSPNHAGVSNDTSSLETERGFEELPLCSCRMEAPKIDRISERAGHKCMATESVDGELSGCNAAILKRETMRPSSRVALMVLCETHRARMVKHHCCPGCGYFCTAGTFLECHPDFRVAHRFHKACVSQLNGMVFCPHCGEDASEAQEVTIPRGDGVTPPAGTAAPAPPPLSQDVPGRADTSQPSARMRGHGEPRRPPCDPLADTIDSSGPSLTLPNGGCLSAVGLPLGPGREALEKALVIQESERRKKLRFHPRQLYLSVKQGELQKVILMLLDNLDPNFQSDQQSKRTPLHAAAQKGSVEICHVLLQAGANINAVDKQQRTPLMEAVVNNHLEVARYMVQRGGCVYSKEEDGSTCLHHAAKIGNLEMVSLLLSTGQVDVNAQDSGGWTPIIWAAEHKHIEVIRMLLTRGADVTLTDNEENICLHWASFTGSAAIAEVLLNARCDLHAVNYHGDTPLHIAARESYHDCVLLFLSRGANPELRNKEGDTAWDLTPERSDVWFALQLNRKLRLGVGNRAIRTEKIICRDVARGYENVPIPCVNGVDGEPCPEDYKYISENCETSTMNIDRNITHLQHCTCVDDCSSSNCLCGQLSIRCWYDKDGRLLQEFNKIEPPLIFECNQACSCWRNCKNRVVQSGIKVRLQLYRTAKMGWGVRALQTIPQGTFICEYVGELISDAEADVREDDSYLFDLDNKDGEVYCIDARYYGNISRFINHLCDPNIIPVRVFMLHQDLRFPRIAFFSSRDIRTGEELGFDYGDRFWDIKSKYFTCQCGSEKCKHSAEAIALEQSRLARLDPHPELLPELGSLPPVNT
SMILES,Potency,"activity, negative = inhibition"
Cc1cc(C(=O)N2CCCC2)n[nH]1,"inconclusive: 44.7 µM [inhibitor, partial curve, poor fit]",
O=C(NCc1ccc(Cl)cc1)C1CCC(CNc2c(N3CCOCC3)c(=O)c2=O)CC1 (stereo not given),"inconclusive: 56.2 µM [inhibitor, partial curve, poor fit]",
CN(C)C(=O)c1ccc(NC(=O)c2cc(-c3ccco3)nc3ccccc23)cc1,inactive,
Cc1nc(NC(=O)c2ccccc2)sc1C1(C)CC(c2c(Cl)cccc2Cl)=NO1 (stereo not given),,inconclusive: -77.1% [inhibitor]
N#Cc1cnn(Cc2ccccc2)c1/N=C/N1CCOCC1,,inactive: 2.44% [at 12.7 µM]
CN(C)S(=O)(=O)c1ccc(S(=O)(=O)N(CC(=O)Nc2ccccc2)CC2CCCO2)cc1 (stereo not given),active: 31.6 µM,
C(=N\Nc1nccc(-c2cccnc2)n1)/c1ccccc1,"inconclusive: 89.1 µM [inhibitor, single point]",
O=C(CSc1oc(-c2ccco2)nc1S(=O)(=O)c1ccccc1)NCC1CCCO1 (stereo not given),"inconclusive: 22.4 µM [inhibitor, single point]",
COC(=O)c1ccc(NC(=O)c2cc3cc4ccc(OC)c(Cl)c4nc3s2)cc1,inactive,
Cn1cnnc1SCC(=O)N1c2ccccc2-c2c(ssc2=S)C1(C)C,"inconclusive: 10 µM [inhibitor, partial curve, poor fit]",
Cc1cc(SCC(=O)OCC(=O)N(C)C2CCS(=O)(=O)C2)c(C)cc1Br (stereo not given),"inconclusive: 89.1 µM [inhibitor, single point]",
COc1ccc(CNC(=O)CCS(=O)(=O)c2cc3c4c(c2)CCN4C(=O)CC3)cc1,inactive,
COc1ccc(C(C)=O)cc1COC(=O)c1cccnc1SC,inactive,
Cc1sc2ncnc(N3CCC(C(=O)Nc4nc5ccc(Cl)cc5s4)CC3)c2c1C,"inconclusive: 22.4 µM [inhibitor, single point]",
COc1ccc2c(Cl)c(C(=O)NCc3ccco3)sc2c1,"inconclusive: 89.1 µM [inhibitor, single point]",
COc1cccc(N=Nc2c(N)[nH]n3c(=O)c4c(nc23)CCCC4)c1,"inconclusive: 89.1 µM [inhibitor, partial curve, poor fit]",
CC(O)Cc1cn(CC(=O)N2CCN(C(=O)OC(C)(C)C)CC2)nn1 (stereo not given),,inconclusive: -87.6% [inhibitor]
COc1cc(/C=N/NC(=O)c2ccc(CSc3nc4ccccc4[nH]3)cc2)cc(OC)c1OC,"inconclusive: 10 µM [inhibitor, partial curve, poor fit]",
O=c1c2cc3c(=O)n(-c4ccccc4O)c(=O)c3cc2c(=O)n1-c1ccccc1O,"inconclusive: 28.2 µM [inhibitor, partial curve]",
Cc1ccc(NC(=O)COC(=O)CCc2nc3ccccc3c(=O)[nH]2)c(Br)c1,"inconclusive: 50.1 µM [inhibitor, partial curve, poor fit]",
COC(=O)CSc1nnc(CNC(=O)c2ccccc2F)n1-c1ccc(F)cc1,inactive,
COc1ccc(S(=O)(=O)N(CCc2ccccc2)CC(=O)NCc2ccc(C)cc2)cc1,inactive,
CCOc1ccc(-n2nc3ccc(NC(=O)COc4ccccc4C)cc3n2)cc1,inactive,
CCOc1ccc2c(c1)OC(c1ccc(C)cc1)(C(F)(F)F)NC2=O (stereo not given),"inconclusive: 89.1 µM [inhibitor, single point]",

SMILES,Potency,"activity, negative = inhibition"
CCCCCCCCCCCCCCCC[n+]1ccc(/C=N/O)cc1,inactive,
COC(=O)c1sccc1NC(=O)Nc1ccc(C(C)=O)cc1,"inconclusive: 25.1 µM [inhibitor, partial curve, poor fit]",
CCOC(=O)NNC1CC(=O)N(c2ccccc2)C1=O (stereo not given),"inconclusive: 35.5 µM [inhibitor, single point]",
COc1ccc(Cl)cc1NC(=O)C1CC(=O)N(C2CCCCC2)C1 (stereo not given),"inconclusive: 3.55 µM [inhibitor, full curve]",
C=C(c1ccc(O)cc1)c1ccc(O)cc1,,inconclusive: -98.6% [inhibitor]
CC(C)N1CCN(C(=O)c2ccc(NC(=O)c3ccc(Br)o3)cc2)CC1,"inconclusive: 3.98 µM [inhibitor, partial curve, poor fit]",
Cc1ccc(CSc2nc3cccnc3n2Cc2nc(-c3ccccc3F)oc2C)cc1,"inconclusive: 25.1 µM [inhibitor, partial curve, poor fit]",
CSCCC1NC2(C(=O)Nc3c(Cl)cccc32)[C@@H]2C(=O)N(C3CCCC3)C(=O)[C@H]12 (stereo not given in full),active: 70.8 µM,
CCOc1ccc(OCCC(=O)N(CC)CC(=O)Nc2ccccc2C(F)(F)F)cc1,"inconclusive: 89.1 µM [inhibitor, single point]",
COc1ccc(Br)cc1-c1nc(C)c(C(C)=O)n1O,active: 10 µM,
O=C(NCC(c1cccnc1)N1CCN(Cc2ccccc2)CC1)C(=O)Nc1ccc(F)cc1 (stereo not given),inactive,
C=CCNC(=O)c1ccc2c(=O)n(CCCN3CCCC3=O)c(=S)[nH]c2c1,"inconclusive: 3.55 µM [inhibitor, full curve, poor fit]",
CN(C)/C=C(/C(=O)c1ccc(Cl)cc1Cl)S(=O)(=O)c1ccc(Cl)cc1,,inconclusive: -61% [inhibitor] [at 12.7 µM]
O=C(Cc1ccccc1)NC1CCN(C(=O)NCc2ccccc2)CC1,,inactive: 15.3% [at 12.7 µM]
C=CCn1c(CCC(=O)O)ccc1-c1ccc(OC)cc1,"inconclusive: 28.2 µM [inhibitor, partial curve, poor fit]",
O=C(O)CNC(=S)NCc1ccccc1,"inconclusive: 50.1 µM [inhibitor, partial curve, poor fit]",
Cc1cccc(NC(=O)c2ccc(S(=O)(=O)N3CC(C)OC(C)C3)cc2)n1 (stereo not given),inactive,
CCn1cnc2cc(NCc3ccc(N(C)C)cc3)ccc21,active: 3.98 µM and active: 11.2 µM,
CCOc1ccc(Br)cc1S(=O)(=O)NC1CCCC1,inactive,
COCCNC(=S)N/N=C1\CC(C)CC(C)(C)C1 (stereo not given),active: 50.1 µM,
C=CCn1c(SCC(=O)N2c3ccccc3Sc3ccccc32)nnc1-c1ccco1,"inconclusive: 44.7 µM [inhibitor, single point]",
COc1ccc(NC(=O)C(CCCCNC(=O)OC(C)(C)C)NC(=O)OCc2ccccc2)cc1 (stereo not given),active: 3.55 µM,
O=C(NC(=S)Nc1ccc(N2CCOCC2)c(Cl)c1)c1cncc(Br)c1,inactive,
COc1ccc(CNC(=O)Cn2ccc(NC(=O)OCc3ccccc3)nc2=O)cc1,,inactive: 5.71% [at 0.501 µM]

SMILES,Potency,"activity, negative = inhibition"
COc1cc(/C=C/C(=O)O)cc(S(=O)(=O)Nc2ccccc2C(=O)NCCc2ccccc2)c1OC,"inconclusive: 70.8 µM [inhibitor, partial curve]",
CCc1ccc(CNC(=O)c2cnc3sc(N4CCCCCC4)nn3c2=O)cc1,inactive,
CCOC(=O)/C(O)=C(\C#N)c1nc2ccccc2[nH]1,inactive,
Nc1nccnc1C(=O)OCC(=O)Nc1ccc2[nH]c(=O)[nH]c2c1,"inconclusive: 35.5 µM [inhibitor, partial curve, poor fit]",
COc1ccc(Nc2nc(C)cc(C)n2)cc1Cl,"inconclusive: 79.4 µM [inhibitor, single point]",
CC(=O)Nc1ccc(NC(=O)CSc2nc(C)nc3sc(C)c(C)c23)cc1,"inconclusive: 39.8 µM [inhibitor, partial curve]",
CCCCN1CCCCC1C(=O)Nc1c(C)cc(C)cc1C (stereo not given),"inconclusive: 0.708 µM [inhibitor, full curve, poor fit]",
CC(=O)c1c(C)[nH]c(C(=O)Nc2ccccc2N2CCOCC2)c1C,"inconclusive: 50.1 µM [inhibitor, partial curve]",
Nc1ccc(-c2sc(N)nc2-c2ccccc2)cc1,,inconclusive: -72.7% [inhibitor] [at 0.0925 µM]
O=C(Oc1ccc2c(c1)OCO2)c1ccncc1,"inconclusive: 89.1 µM [inhibitor, partial curve, poor fit]",
Cc1ccc(-c2nnc(Nc3ccc(CC(N)=O)cc3)c3ccccc23)cc1S(=O)(=O)NCCO,"inconclusive: 79.4 µM [inhibitor, single point]",
COc1ccc(-c2nnc(SCc3ccc(C(=O)O)cc3)n2C)cc1OC,inactive,
CCOC(CNC(=O)C1CCN(S(=O)(=O)c2ccc3nc4c(c(C(=O)O)c3c2)CC(C)CC4)CC1)OCC (stereo not given),"inconclusive: 79.4 µM [inhibitor, partial curve, poor fit]",
O=C(O)CCC(=O)N1CCCC1C(=O)O (stereo not given),inactive,
CCCNC(=O)C(NS(=O)(=O)c1ccc2c(c1)c(=O)n(C)c(=O)n2C)c1ccccc1 (stereo not given),active: 39.8 µM,
Cc1cc(=S)n(-c2ccccc2)n1C,"inconclusive: 2.24 µM [inhibitor, partial curve, poor fit]",
S=C(NCc1cccnc1)Nc1cccc2ccccc12,inactive,
CCN(CC)CCNC(=O)c1c(O)c2c([nH]c1=O)CCCC2,active: 79.4 µM,
Cc1ccc(C(=O)c2sc(Nc3ccccc3F)c(S(=O)(=O)c3ccccc3)c2N)c(C)c1,inactive,
O=C(NNC(=O)c1ccccc1Br)c1ccc(Cl)cc1,"inconclusive: 3.55 µM [inhibitor, partial curve, poor fit]",
CC(=NCCc1c(C)[nH]c2ccc(C)cc12)C1=C(O)CC(c2ccccc2)CC1=O (stereo not given),"inconclusive: 22.4 µM [inhibitor, single point]",
Cc1cc(C)c(S(=O)(=O)Nc2cc(-c3cn4ccccc4n3)ccc2C)cc1C,"inconclusive: 10 µM [inhibitor, partial curve, poor fit]",
